Assay results from PubChem BioAssay AID485297 (National Center for Advancing Translational Sciences (NCATS), 2010).
The whole screen tested about 320,000 compounds, of which about 9,100 (2.8%) were called active. Inconclusive means that the source gave no clear call. Such entries were picked first, then a sample of the others. The call rests on the fitted dose curve; in most records, active means well fitted activation curve with a large enough effect; inconclusive means small, poorly fitted or top-dose-only effect; inactive means no such curve, though single readings can be large or run the other way. Potencies of inconclusive entries are left out as doubtful fits.
Potency means the concentration at half of the fitted maximal effect; tags describe the fitted curve by direction and shape.

Assay: qHTS Assay for Rab9 Promoter Activators; further: nearly all actives have a fitted effect of over 60% in size
Conditions: Huh7 Rab9 promoter-luciferase reporter, luminescence, 24 h; series mostly up to 9.22 µM
Procedure, shortened: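 Huh7 reporter line, Rab9 promoter upstream of luciferase. Compound exposure 24 h at 37 °C in reduced-serum medium with 10% FBS. Read-out: luminescence.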
In the case of `Cc1nnc(SCc2ccc3c(c2)OCO3)s1`, the Potency is reported as inconclusive [activator, single point]. With `C=CCOc1ccc(/C=C/C(C)=N\O)cc1` the Potency was active: 2.82 µM. For `S=C1SCN(Cc2ccccc2)CN1Cc1ccccc1`, the Potency was “inactive”. With `COc1cccc(NC(=O)NCc2ccccc2F)c1` the Potency was inconclusive [activator, partial curve]. In the case of `CCOCCCNC(=O)CCc1nnc2n(CCC(C)C)c(=O)c3ccccc3n12`, the Potency is reported as “inactive”. For `COc1ccc(NC2CCCN(C(=O)CCC(=O)c3ccc(F)cc3)C2)cc1` (stereo not drawn), the Potency was inconclusive [activator, single point]. In the case of `CCC(=O)Nc1ccc(C(=O)COC(=O)Cc2ccsc2)cc1`, the Potency is reported as “inactive”. For `COc1cc(/C=N/N(C)c2ccccc2)ccc1O`, the Potency was inconclusive [activator, single point]. In the case of `Cc1ccc(C(=O)Oc2ccc(/C=C3\C(=N)N4N=C(N5CCOCC5)SC4=NC3=O)cc2)cc1`, the Potency is reported as inconclusive [activator, single point]. In the case of `COc1cccc(N2CCN(C(=O)CCCCCn3c(=S)[nH]c4cc5c(cc4c3=O)OCO5)CC2)c1`, the Potency is reported as “inactive”. In the case of `CCCCCC(=O)Nc1ccc(-c2csc(N)n2)cc1`, the Potency is reported as inconclusive [activator, single point]. For `CC(=O)Nc1ccc2c(c1)C(=O)c1ccccc1C2=O`, the Potency was active: 0.708 µM. In the case of `CC(C)C(=O)Nc1ccccc1C(=O)OCC(=O)c1ccc2c(c1)OCCO2`, the Potency is reported as active: 2.82 µM. With `CC(=O)c1cccc(NC(=O)N2CCc3ccccc3C2)c1` the Potency was inconclusive [activator, partial curve]. In the case of `CCCC1CCC(c2nc(-c3cccnc3)no2)CC1` (stereo not drawn), the Potency is reported as inconclusive [activator, partial curve]. With `Oc1ccccc1CNc1ccc(OC(F)(F)F)cc1` the Potency was inconclusive [activator, partial curve]. With `Cc1ccc(C(=O)CSc2nc3ccccc3o2)cc1` the Potency was inconclusive [activator, partial curve]. For `CCCCOC(=O)c1ccc(NC(=O)c2ccoc2C)cc1`, the Potency was inconclusive [activator, single point]. For `N/C(=N\OC(=O)COc1ccc(Cl)cc1Cl)c1ccccn1`, the Potency was active: 0.708 µM. For `CC1=NN(C(N)=S)C(=O)C1N=Nc1cccc(C)c1` (stereo not drawn), the Potency was inconclusive [activator, single point]. For `O=C(Nc1ccc2c(c1)OCO2)c1ccccc1`, the Potency was active: 1.12 µM. In the case of `Oc1ccc(/C=N/Nc2ccc(C(F)(F)F)cn2)cc1`, the Potency is reported as active: 3.55 µM. With `O=C(CSc1nnc(-c2ccc(F)cc2)o1)N1CCCCC1` the Potency was inconclusive [activator, partial curve]. For `COCc1ccc(C(=O)N(C)CC2CCCN(CCc3ccc(OC)cc3)C2)o1` (stereo not drawn), the Potency was inconclusive [activator, single point]. With `CC(=O)Nc1ccc2nc(-c3cccn3C)[nH]c2c1` the Potency was inconclusive [activator, single point]. With `CCn1c(NC(=S)Nc2ccccc2)nc2ccccc21` the Potency was inconclusive [activator, partial curve]. For `CC1CN(C(=O)COc2ccc3c(-c4ccccc4)cc(=O)oc3c2)CC(C)O1` (stereo not drawn), the Potency was “inactive”. For `O=C(NNC(=O)c1cc(-c2ccc(Cl)cc2Cl)nc2ccccc12)Nc1ccccc1`, the Potency was “inactive”. In the case of `CCN1C(=O)/C(=C2\SC(N3CCCCC3)=NC2=O)c2ccccc21`, the Potency is reported as inconclusive [activator, partial curve]. With `Cc1ccccc1Cn1nnc(C(=O)Nc2ccc3c(c2)OCCO3)c1N` the Potency was active: 1.78 µM. For `CCN(CC)S(=O)(=O)c1ccc(NC(=O)c2ccccn2)cc1`, the Potency was inconclusive [activator, single point]. For `CCC(CC)c1nnc(NC(=O)c2ccc3c(c2)OCO3)s1`, the Potency was inconclusive [activator, single point]. In the case of `Cc1ccc(C)c(OCCNc2ncccc2[N+](=O)[O-])c1`, the Potency is reported as “inactive”. For `Cc1ccc(C(=O)NCCCc2ccccc2)c(Cl)c1`, the Potency was active: 2.24 µM. With `O=C(COc1ccccc1)Nc1ccc(-c2ccc(N3CCOCC3)nn2)cc1` the Potency was active: 2.24 µM. For `c1csc(-c2nnc(N3CCOCC3)c3ccccc23)c1`, the Potency was “inactive”. In the case of `Clc1ccc(Cn2nc(-c3ccccc3)nc2-c2ccccc2)cc1`, the Potency is reported as “inactive”. For `Cc1cc(C)cc(NC(=O)CCc2c(C)nn(-c3ccc(N4CCCCC4)nn3)c2C)c1`, the Potency was inconclusive [activator, partial curve]. With `CCc1ccc2nc(NC(=O)c3cc(C)on3)sc2c1` the Potency was inconclusive [activator, single point]. In the case of `Cc1cccc(C(=O)OC(C)CN2CCN(C)CC2)c1` (stereo not drawn), the Potency is reported as inconclusive [activator, single point]. In the case of `O=C(NCC1COc2ccccc2O1)c1ccc(Br)s1` (stereo not drawn), the Potency is reported as inconclusive [activator, single point]. With `CCO[C@@H]1OC(C(=O)N2CCOCC2)=C[C@H](c2ccc(C(F)(F)F)cc2)[C@H]1CCCO` the Potency was “inactive”. In the case of `CC(C)(C)C1CCc2c(sc(NC(=O)c3ccco3)c2C(N)=O)C1` (stereo not drawn), the Potency is reported as active: 2.82 µM. With `O=C(N/N=C/c1cc2c(cc1Cl)OCO2)c1cccc(Br)c1` the Potency was inconclusive [activator, partial curve]. With `O=C(O)c1cccc2c1-c1ccccc1/C2=N\Nc1ccccc1` the Potency was inconclusive [activator, partial curve]. For `CN(C)CCNc1ncnc2c1cnn2-c1ccc(Cl)cc1`, the Potency was inconclusive [activator, partial curve]. For `Cc1cc(NC(=O)c2oc3ccccc3c2C)ccc1-n1cnnn1`, the Potency was “inactive”. With `COc1cc(C)ccc1OCc1cc(C(=O)NC(C)Cn2cncn2)no1` (stereo not drawn) the Potency was active: 1.58 µM. For `CN(C(=O)CSc1nncc2ccccc12)C1CCCCC1`, the Potency was inconclusive [activator, single point]. With `CCOC(=O)C1(CCc2ccccc2)CCN(C2Cc3ccccc3C2)CC1` the Potency was inconclusive [activator, partial curve]. For `CC(=O)COc1ccc2cc(-c3ccccc3)c(=O)oc2c1`, the Potency was active: 1 µM. In the case of `COc1ncccc1-c1nnn(-c2ccc(Cl)nc2)n1`, the Potency is reported as inconclusive [activator, single point]. For `CCCCc1ccc(-c2ccc(Br)cc2O)nc1`, the Potency was active: 0.794 µM. In the case of `O=C(Nc1ccc2c(c1)OCCO2)N1CCN(Cc2ccccc2)CC1`, the Potency is reported as inconclusive [activator, partial curve]. In the case of `COc1ccc(-c2nc(SC)n(S(=O)(=O)c3ccccc3)n2)cc1`, the Potency is reported as inconclusive [activator, single point]. With `COc1cc(C(=O)OCC(=O)Nc2cc(C)on2)ccc1OCc1ccccc1Cl` the Potency was inconclusive [activator, partial curve]. With `Cc1ccc(C(=O)CSc2ccccn2)cc1` the Potency was active: 3.55 µM. With `CCc1ccc(/C=N/NC(=O)Cc2cccn2C)cc1` the Potency was inconclusive [activator, single point]. In the case of `Brc1ccc(-c2noc(-c3ccccc3)n2)o1`, the Potency is reported as active: 1.26 µM. With `Cc1ccc(/C=N/Nc2nc(C(C)(C)C)cs2)o1` the Potency was inconclusive [activator, single point]. With `CCCN1CCC(=O)N([C@H](CSc2ccccc2)CC(C)C)CC1` the Potency was active: 3.16 µM. In the case of `Cc1sc(NC(=O)c2cccc([N+](=O)[O-])c2)c(C(N)=O)c1-c1ccc(C(C)(C)C)cc1`, the Potency is reported as inconclusive [activator, single point]. For `CCc1ccc(C2CC(c3ccco3)=NN2S(C)(=O)=O)cc1` (stereo not drawn), the Potency was active: 0.316 µM. With `COC(=O)c1cccc(C(=O)Nc2cnc3ccccc3c2)n1` the Potency was inconclusive [activator, partial curve]. In the case of `CCN(CC)C(=S)SCC(=O)c1ccc(Br)cc1`, the Potency is reported as inconclusive [activator, single point]. For `Nc1n[nH]c(N)c1N=Nc1ccc2c(c1)OCO2`, the Potency was inconclusive [activator, single point]. For `COc1ccc(S(=O)(=O)N2CCOCC2)cc1NC(=O)CNC(=O)c1cccs1`, the Potency was “inactive”. With `O=C(Nc1ccc2c(c1)CCC2)c1ccccc1Br` the Potency was active: 1.58 µM. With `Cc1ccc(S(=O)(=O)N(CC(=O)N=Nc2c(O)[nH]c3ccccc23)c2cccc(C)c2)cc1` the Potency was “inactive”. In the case of `CCc1ccc(OC(=O)Nc2ccccc2)cc1`, the Potency is reported as inconclusive [activator, single point]. With `Cn1cnnc1SCc1nc(N)nc(Nc2ccccc2)n1` the Potency was inconclusive [activator, partial curve]. In the case of `CC(O)CNCCCCOc1ccc(OCc2ccccc2)cc1` (stereo not drawn), the Potency is reported as inconclusive [activator, single point]. For `CCOC(=O)c1ccc(Cl)c(NC(=O)c2ccc(-c3ccccc3)cc2)c1`, the Potency was inconclusive [activator, partial curve]. For `COc1ccc(C(=O)NCCCOC(C)C)cc1OC1CCN(C(C)=O)CC1`, the Potency was inconclusive [activator, partial curve]. In the case of `CCOC(=O)c1sc(=S)n(-c2ccc3c(c2)OCO3)c1N`, the Potency is reported as “inactive”. For `CCOc1ccc(-c2nnc(-c3ccncc3)o2)cc1`, the Potency was active: 1.58 µM. For `O=C(c1cc(-c2ccc(F)cc2)on1)N1CCCC1`, the Potency was active: 0.631 µM. For `COc1ccc2c(c1OC)C(=O)N1c3ccccc3SC21` (stereo not drawn), the Potency was active: 2.82 µM.
